# Measured values as given in PubChem BioAssay AID1240 (Sanford-Burnham Center for Chemical Genomics, 2008).
# About 800 (1.6%) of roughly 50,000 compounds showed an effect of 50% or more. This is one part of the list.
# Target: Bcl-2-like protein 10 (Homo sapiens) (UniProt Q9HD36)
# Assay: TR3 peptide-Bcl-B binding displacers, biochemical primary FP assay, phenotype converters (AID 1240);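 further: 0% = Bcl-B with tracer peptide and DMSO and 100% = tracer peptide lacking Bcl-B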
# Conditions: GST-Bcl-B / FITC-TR3 peptide fluorescence polarization; stronger effect = higher value; compound at 3.75 mg/L
# UniProt Q9HD36, sequence (Q9HD36 whole entry, looked up): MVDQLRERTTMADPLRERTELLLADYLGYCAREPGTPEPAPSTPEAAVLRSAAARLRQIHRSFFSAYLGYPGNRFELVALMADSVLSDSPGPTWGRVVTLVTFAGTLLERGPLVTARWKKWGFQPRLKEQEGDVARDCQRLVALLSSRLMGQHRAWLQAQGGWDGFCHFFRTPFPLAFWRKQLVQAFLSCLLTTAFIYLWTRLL
row,Compound,displacement
1,CCN(CC)c1ccc(/C=N\NC(=O)c2cccc3cc[nH]c23)cc1,-2.5%
2,O=C(COc1cccc(Cl)c1)NCCc1nc2ccccc2[nH]1,-6%
3,O=C(CCC(=O)Nc1ccccc1)NCCO,-0.1%
4,O=C(ON=C1c2ccccc2-c2ccccc21)c1ccccc1F,5.3%
5,CC1=C(C(=O)Nc2ccc(Cl)cc2)C(c2ccc(F)cc2)NC(=S)N1 (configuration not stated),-8.6%
6,COc1ccc(S(=O)(=O)n2nnc3ccccc32)cc1OC,2.8%
7,Cc1ccc(C(C)(C)C)c(OCC(=O)Nc2ccccc2C(F)(F)F)c1,-0.6%
8,Cc1cc(C)n(-c2nc3nonc3nc2Nc2cccc(C)c2C)n1,-42.2%
9,Cc1c(C(=O)OC(C)C)sc(NC(=O)COc2ccc(Cl)cc2)c1C(N)=O,30.4%
10,COc1ccc(CC(=O)O/N=C(\N)c2ccccn2)cc1OC,11%
11,O=C(COc1ccc([N+](=O)[O-])cc1)Nc1cccc2ccccc12,10.1%
12,O=C(Nc1ccc([N+](=O)[O-])cn1)C1CC1c1ccccc1 (configuration not stated),-1.9%
13,Cc1ccc(NC(=O)c2ccc3c(c2)OCCO3)c([N+](=O)[O-])c1,8.1%
14,COc1ccc(N2C(=O)c3ccccc3NC2c2ccc(OC)c(Cn3nc(C)c([N+](=O)[O-])c3C)c2)cc1 (configuration not stated),6.3%
15,CCc1cc2c(cc1C(C)O)OCCO2 (configuration not stated),-13.4%
16,C(=N\n1cnnc1)/c1ccc(Sc2nnnn2-c2ccccc2)o1,-10.9%
17,COc1ccc(C2CC(=O)C3=C(C2)Nc2ccccc2NC3c2ccc3ccccc3c2)cc1 (configuration not stated),-2.3%
18,CCOn1c(=O)c(-c2ccccc2)[n+]([O-])c2ccccc21,18.9%
19,Cc1ccc(S(=O)(=O)Nc2c(C)cc(O)c(Br)c2C)cc1,3.9%
20,CS(=O)(=O)N(CC(=O)Nc1cccc(C(F)(F)F)c1)c1ccc(Cl)cc1,2.3%
21,CCCOc1cccc(C(=O)Nc2ccc(C)cc2[N+](=O)[O-])c1,9.5%
22,O=C(NCCO)C(=O)Nc1cccc(C(F)(F)F)c1,12.4%
23,O=C(N/N=C/c1ccc(Cl)cc1Cl)c1c[nH]c2ccccc12,15.1%

row,Compound,displacement
1,O=C(Nc1cccc(-c2nc3ccccc3[nH]2)c1)c1ccc2c(c1)OCCO2,11.6%
2,COc1ccc(N2C(=O)/C(=C/c3cn(Cc4ccccc4)c4ccccc34)C(=O)NC2=S)cc1,25%
3,COc1ccc(-c2nnnn2C)cc1S(=O)(=O)NCCc1ccccc1,17.1%
4,FC(F)(F)c1ccc(-c2nnc3ccc4ccccc4n23)cc1,-8%
5,CC1=C(C#N)C(c2ccccc2Br)C2=C(CC(c3ccccc3)CC2=O)N1 (configuration not stated),1.5%
6,Cc1csc(NC(=O)c2ccc(Cl)cc2[N+](=O)[O-])n1,11.8%
7,CC(=O)Nc1c(-c2ccc(C)cc2)nc2ccc(Cl)cn12,6.3%
8,N/C(=N\OC(=O)c1ccc(F)cc1)c1cccnc1,4.4%
9,Cc1cccc(N=Cc2c(O)n(-c3ccccc3F)c(=O)[nH]c2=O)c1,-2.6%
10,CN(C)c1ccc(/C=N/NC(=O)CNC(=O)c2ccncc2)cc1,7.3%
11,COC(=O)c1c(N)sc(C)c1-c1ccc(C)c(C)c1,-6.9%
12,O=C(O)C(NC(=O)c1ccccc1)=C1CCCCC1,3.2%
13,CNC(=O)c1c(NC(C)=O)sc2c1CCCCC2,-14%
14,CCOC(=O)C(CCCCCOc1ccccc1F)C(=O)OCC,8.4%
15,N/C(=N\OC(=O)c1ccc(Cl)cc1Cl)c1cccnc1,-2.9%
16,COc1cc(/C=C2\N=C(c3ccc(F)cc3)OC2=O)ccc1OC(=O)c1ccccc1Cl,12.2%
17,CCc1cc(=O)oc2cc(OCc3ccc(Br)cc3)ccc12,-3.9%
18,O=C(CC(c1ccccc1)c1ccccc1)Nc1ccc2c(c1)OCO2,-4.4%
19,COc1cccc2cc(C(C)=O)c(=O)oc12,14.4%
20,Cn1ccc(C(=O)OCC(=O)c2ccccc2)n1,13.8%
21,COc1ccc(NC(=O)c2ccc(OC)c(OC)c2)cc1Cl,20.4%
22,Cc1ccc(-c2c(C#N)c(N)nc3c2CCCC3)s1,-0.6%
23,CCOC(=O)c1ccc2c3c(onc13)-c1ccccc1C2=O,120%

row,Compound,displacement
1,N#C/C(=C\c1cccs1)c1nc2ccccc2s1,-12.5%
2,COC(=O)C1=C(C)NC2=C(C(=O)CCC2)C1c1ccc(OCc2ccc(Cl)cc2)c([N+](=O)[O-])c1 (configuration not stated),-0.1%
3,Cc1cc(Cl)ccc1OCC(=O)Nc1ccc(OC(F)(F)F)cc1,2.8%
4,O=C(/C=C/c1cccc([N+](=O)[O-])c1)c1ccc2c(c1)OCCO2,11.9%
5,COc1cc(C2NC(=O)NC(C)=C2C(=O)OCc2ccc3c(c2)OCO3)cc(Br)c1O (configuration not stated),14.1%
6,CC(=O)Nc1cc(C(F)(F)F)cc(C(F)(F)F)c1,-7.4%
7,COc1cc(C(=S)N2CCOCC2)ccc1OC(=O)c1ccccc1,11.2%
8,CC1CCc2c(sc(NC(=O)c3cncc(Br)c3)c2C(N)=O)C1 (configuration not stated),18.5%
9,O=C(Nc1ccccc1)Nc1nc(C(c2ccccc2)c2ccccc2)cs1,0.5%
10,Nc1nonc1C(=O)OCc1ccccc1,10.5%
11,O=C(Nc1cc(C(F)(F)F)ccc1Cl)c1ccc(Cl)cc1Cl,-1.2%
12,CCOc1cccc2c1N(C(=O)c1ccccc1)C(C)(C)C(=S)C2=C1SC(C(=O)OC)=C(C(=O)OC)S1,0.3%
13,CC(=O)c1ccc(NC2=C(Cl)C(=O)c3ccccc3C2=O)cc1,4.5%
14,COc1ccccc1C(=O)NN1C(=O)/C(=C/c2ccc([N+](=O)[O-])cc2)SC1=S,-2%
15,O=C(CC12CC3CC(CC(C3)C1)C2)Nc1nccs1,3.9%
16,Cn1c2ccccc2c2cc(C3Nc4ccccc4C(=O)N3Cc3ccccc3)ccc21 (configuration not stated),7%
17,Cc1ccc(C(=O)N/C(=C\c2ccco2)c2nc(=S)[nH][nH]2)cc1,2.3%
18,Cc1ccc(NC(=O)CN2CCN(CCN=CC3=C(O)CC(C)(C)CC3=O)CC2)cc1,-9.3%
19,O=C(Nc1cccc2ccccc12)C1(c2ccccc2)CC1(Cl)Cl (configuration not stated),-1.2%
20,O=C(Nc1cc(Cl)cc(Cl)c1)c1cc2ccccc2o1,0.8%
21,Cc1ccc(C(C)(C)C)cc1C(=O)c1ccc([N+](=O)[O-])cc1,11.4%
22,O=c1[nH]c(=O)n(-c2ccccc2Cl)c(O)c1C=C1C=CC=N1,11.5%
23,COc1ccc(C(=O)N2CCNCC2)cc1OC,-13.1%

row,Compound,displacement
1,O=S(=O)(Nc1cccc(I)c1)c1ccccc1,-2.7%
2,CCc1cccc(C)c1NC(=O)C1CC=CCC1C(=O)O (configuration not stated),-8.5%
3,Cc1c(-c2nc(-c3cccnc3)no2)cccc1[N+](=O)[O-],2.4%
4,COc1ccc(C2C(C(C)=O)=C(O)C(=O)N2c2nc3ccccc3s2)cc1 (configuration not stated),-1%
5,O=Nc1c(O)c2ccccc2c2ccc([N+](=O)[O-])cc12,1.6%
6,Cc1ccc(-n2nc3ccc(NC(=O)COc4ccccc4[N+](=O)[O-])cc3n2)cc1Cl,4.1%
7,CCOc1ccc(NC(=O)c2ccccc2C(F)(F)F)cc1,5.2%
8,Cc1ccc(OCCOCCOc2ccc(Br)cc2/C=C2/SC(=S)NC2=O)cc1,-15.3%
9,O=[N+]([O-])c1cccc(/C=N\N2CCN(C(c3ccccc3)c3ccccc3)CC2)c1,2.8%
10,CC1=C(C(=O)OCCc2ccccc2)C(c2ccc([N+](=O)[O-])cc2)C2=C(CC(C)(C)CC2=O)N1 (configuration not stated),-4.4%
11,C#CCOC(=O)/C=C/c1cccc([N+](=O)[O-])c1,-7.5%
12,C/C(CCc1ccc2c(c1)OCO2)=N\N=C1/NC(=O)CC(C(=O)NCCc2ccc(S(N)(=O)=O)cc2)S1 (configuration not stated),2.4%
13,CCCCN(CCCC)CCCCSc1ccc(O)cc1,-39%
14,Cc1ccc(OCCCCCSC#N)cc1C,5.8%
15,COc1ccc(/C=N/NC(=O)c2nonc2C)cc1,3.1%
16,COC1CCCCC1N1CCN(C(=O)c2ccccc2)CC1 (configuration not stated),-3.5%
17,COc1ccc(CC(=O)c2ccc(OC)c(OC)c2)cc1OC,8.8%
18,Cc1cc(Cl)ccc1OCC(O)CN1CCN(CCO)CC1 (configuration not stated),-0.3%
19,CCC(=O)Nc1ccc(O)c(-c2nc3cc(C)c(C)cc3o2)c1,-7%
20,C/C(=N\Nc1nc(C)cc(-c2ccccc2)n1)c1cccc(N)c1,-15.5%
21,O=c1/c(=C/c2cc(Cl)ccc2OCc2ccccc2Cl)sc2nc3ccccc3n12,-1.9%
22,O=C(NCC(=O)c1ccccc1)SCc1ccccn1,-12.9%
23,COc1ccc(C2SCCN2C(=O)c2cc3ccccc3oc2=O)cc1 (configuration not stated),-0.4%

row,Compound,displacement
1,Cc1ccc2cc(C3=C/C(=C/c4ccccn4)C(=O)O3)ccc2c1,12.2%
2,O=C(C[n+]1cc(Br)cc(Br)c1)c1ccc(Cl)cc1,4.2%
3,O=C(NCc1cccnc1)c1ccc(C#CC2(O)CCCCC2)cc1,-9.5%
4,O=C1OC(c2ccccc2)=C/C1=C\c1c(Cl)cccc1Cl,-5.8%
5,COc1ccc(NC(=O)CC2CCC2)cc1,17%
6,COc1ccccc1N(CC(=O)N/N=C\c1c(O)ccc2ccccc12)S(=O)(=O)c1ccccc1,-22.8%
7,COc1cc(-c2noc(-c3ccccc3C)n2)cc(OC)c1OC,10%
8,CCOc1cc(C(=O)NC2CCSC2=O)cc(OCC)c1OCC (configuration not stated),4.4%
9,COc1ccc2c(c1)OC(O)(C(F)(F)C(F)F)CC2=O (configuration not stated),-1.7%
10,Cc1c(C(=O)OC(C)C)sc(NC(=O)c2cnccn2)c1C(=O)OC(C)C,-5.6%
11,CN(C)c1ccc(NC(=O)COc2ccccc2)cc1,3.2%
12,O=C(c1cccc(Nc2nc(-c3ccccc3)c3cc(Br)ccc3n2)c1)N1CCOCC1,11.1%
13,O=C(CCC(=O)N1CCN(Cc2ccccc2)CC1)N1CCOCC1,0.1%
14,Cc1ccc(Cl)cc1NC(=O)C(C(C)C)N1C(=O)c2ccccc2C1=O (configuration not stated),-5.7%
15,CCOC(=O)C1=NNC(C(=O)c2ccccc2)C1c1ccc(Br)cc1 (configuration not stated),-3.2%
16,Cc1cccc(NC(=O)c2cc([N+](=O)[O-])ccc2Cl)c1C,0%
17,CCOc1ccccc1C1Nc2ccccc2NC2=C1C(=O)CC(c1ccc3c(c1)OCO3)C2 (configuration not stated),8.2%
18,CC(=O)C1=C(C)NC(=O)NC1c1cc(Br)ccc1O (configuration not stated),-8.1%
19,COc1ccc(C(=O)CC(Nc2ccc(Cl)cc2)c2ccccc2)cc1 (configuration not stated),-6.6%
20,Cc1ccc(NC(=O)COc2ccc(Cl)cc2C)c([N+](=O)[O-])c1,17.1%
